Out of some 48,000 compounds screened, about 1,200 (2.5%) were called active. Roughly 2% stayed inconclusive and do not appear here.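 How the source made its calls: active means activation of at least 60% and not above a set upper limit (about 1 call in 100 departs from these limits); inconclusive means activation of 40% to 60%, or above that upper limit; inactive means activation under 40%.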 This is one part of the list.
Molecular target: Probable G-protein coupled receptor 32 (Homo sapiens) (UniProt O75388)
Test: qHTS for Agonists of Human Resolvin D1 Receptor DRV1; further: 0% is about no effect
Conditions: CHO-K1 GPR32 beta-arrestin PathHunter luminescence, 90 min; at 76.9 µM; hits give high values; zero percent set by DMSO-only wells
How it was run: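 Luminescent readout of beta-Gal complementation quantifies ligand-induced beta-arrestin association with GPR32 in CHO-K1 cells; 90 min compound incubation at 37 °C, detection 1 h at room temperature.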

Sequence of UniProt O75388 (O75388 whole entry, looked up): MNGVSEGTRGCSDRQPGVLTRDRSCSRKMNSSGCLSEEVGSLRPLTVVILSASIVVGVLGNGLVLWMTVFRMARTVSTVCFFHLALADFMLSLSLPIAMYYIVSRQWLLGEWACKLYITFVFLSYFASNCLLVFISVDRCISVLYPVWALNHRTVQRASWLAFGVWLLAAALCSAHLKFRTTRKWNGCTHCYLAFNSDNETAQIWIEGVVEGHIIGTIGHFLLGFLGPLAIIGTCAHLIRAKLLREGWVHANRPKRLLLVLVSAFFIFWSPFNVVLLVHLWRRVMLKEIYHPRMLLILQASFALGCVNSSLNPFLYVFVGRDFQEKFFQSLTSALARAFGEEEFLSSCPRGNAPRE

activation, inactive:
O=C(Nc1ccc(F)cc1F)c1noc2c1CCc1ccccc1-2 15.3%, COC(=O)c1ccccc1NC(=O)Cc1noc2ccc(C)cc12 -18.7%, COc1ccc(NC(=O)Cn2c(=O)n(Cc3nc(-c4ccccc4)no3)c(=O)c3cc4c(cc32)OCO4)cc1Cl -18.8%, Cc1cccn2c(=O)cc(COc3cccc(NC(=O)c4ccccc4F)c3)nc12 -13.9%, O=C(Nc1ccc(Cl)c(Cl)c1)N1CCC(c2ccccc2)C1 (configuration not stated) 20.4%, COc1ccc(Br)cc1CNC(=O)CN1CCSc2ccccc21 4.38%, CCc1ccc(NC(=O)CC2C(=O)N(c3ccccc3)C(=O)N2C(C)C)cc1 (configuration not stated) -5.93%, COc1ccc(CNc2ncnc3c2nnn3C)cc1 -7.64%, COc1ccc2c(c1)-c1nc(NC(=O)c3ccc(Cl)cc3)sc1CC2 -12.4%, Cc1ccc2oc(-c3ccc(Cl)c(NC(=O)c4ccc(-c5ccccc5[N+](=O)[O-])o4)c3)nc2c1 4.09%, Cc1nn(CC(=O)NCc2ccc(OC(C)C)cc2)c(=O)c2c(C)n(-c3ccc(Cl)cc3)nc12 0.841%, COc1ccc(CN2C(=O)C(NC(=O)c3ccccc3C)(C(F)(F)F)N=C2c2ccccc2)cc1 (configuration not stated) -7.11%, CCc1ccccc1NC(=O)Cn1nnc(C(=O)Nc2ccc(C)c(F)c2)c1N 0.0537%, Cc1cccc(NC(=O)Cn2cc(C(=O)c3ccco3)c3ccccc32)c1C 11%, CCCCCOc1ccc(C2c3c(oc4ccccc4c3=O)C(=O)N2c2nc(C)c(C)s2)cc1OCC (configuration not stated) -5.24%, CSc1ccc(CCNC(=O)Cn2ncc3c(=O)oc4ccc(C)cc4c32)cc1 4.4%, COc1ccccc1CCNc1ncnc2c1nnn2C 0.728%, Cc1ccc(C)c(CN2C(=O)c3ccccc3Sc3ccc(C(=O)NCc4cccs4)cc32)c1 -18.9%, CC1CCC(N2CC(=O)N(C3CCCC3)C(c3ccc(Cl)cc3)C2=O)CC1 (configuration not stated) -13.3%, COc1ccc(NC(=O)c2c(N)c(C(=O)c3ccc(C)cc3)n3ccccc23)cc1OC 10.2%, CC(=O)c1cccc(NC(=O)c2noc3c2CSc2ccccc2-3)c1 -11.1%, CCN1CCN(Cc2nc3cc(NC(=O)c4ccccc4[N+](=O)[O-])ccc3n2CC)CC1 2.68%, Cc1ccc(C)c(NC(=O)C2CCN(c3nn4c(=O)cc(C)nc4s3)CC2)c1 -0.249%, Cc1cc(C)c2c(-n3cccc3)c(C(=O)NCCCN3CCCCC3)sc2n1 -19.4%, COc1ccc(NC(=O)c2ccc3c(c2)c(C)c(C)n3Cc2ccc(F)cc2)cc1 -11.7%, Cc1ccccc1OCCSc1nc(C)c(Cc2ccccc2)c(=O)[nH]1 -11.6%, COc1cccc(CNC(=O)C(C)n2ccc3cc(S(=O)(=O)N4CCCCCC4)ccc32)c1 (configuration not stated) 33.4%, COc1ccc(-c2nn(C)c3sc(C(=O)N4CCN(c5ccccc5F)CC4)cc23)cc1OC 20.3%, Cc1ccc(-c2[nH]c3ccccc3c2SCCNC(=O)c2ccc(S(=O)(=O)N3CCOCC3)cc2)cc1 -13.1%, COc1ccccc1-c1cc(NC(=O)COc2ccccc2Cl)n(-c2ccccc2)n1 31.6%, Cc1cccc2c1-c1sc(C(=O)NCCc3ccc(Cl)cc3)cc1CO2 17.3%, COc1ccc(-c2nn3c(-c4ccc(C)cc4)nnc3c3ccccc23)cc1 -1.19%, COc1cccc(CN2C(=O)c3ccccc3Sc3ccc(C(=O)NCCc4ccc(Cl)cc4)cc32)c1 -18.1%, COc1ccc(C2=Nn3c(nc4sc(C(=O)Nc5cccc(C)c5)c(C)c4c3=O)SC2)cc1 6.99%, COc1ccc(NC(=O)c2ccc3c(c2)c(C)c(C)n3Cc2ccc(F)cc2)c(OC)c1 -19.8%, COc1ccc(NC(=O)Cn2c(=O)n(-c3ccc(CC(=O)NCC4CCCO4)cc3)c(=O)c3ccccc32)c(OC)c1 (configuration not stated) -25.9%, CCCOc1ccc(OC(=O)c2c(-c3ccccc3Cl)noc2C)cc1 -7.62%, COc1ccc(NC(=O)c2cc3c([nH]c2=O)CC(c2ccccc2)CC3=O)cc1 (configuration not stated) -11.9%, CCc1ccc(OCC(=O)N(Cc2ccco2)Cc2ccco2)cc1 -8.44%, Cc1cc(C)cc(OCc2cc(=O)n3cc(C)sc3n2)c1 -14.5%, COc1ccccc1NC(=O)CCn1nc(-c2ccccc2)c2ccccc2c1=O -24.5%, O=C(C1CCN(c2nc3ccccc3[nH]2)CC1)N1CCN(c2ccccc2)CC1 -4.23%, CCOC(=O)c1c(C)n(-c2ccccc2)c2ccc(OC(=O)c3ccc(OCC)c(OCC)c3)cc12 17.8%, Cc1cccc(-c2noc(-c3ccc(NCC4CCCO4)c([N+](=O)[O-])c3)n2)c1 (configuration not stated) -0.181%, COc1ccccc1N1CCN(c2nc3ccc(C)cc3nc2-n2nc(C)cc2C)CC1 -3.4%, CCCN1CCN(CCCNC(=O)c2ccc3c(c2)sc2nc(-c4ccc(C)cc4)cn23)CC1 -7.94%, Cc1cccc(NCc2nnc3n2CCCCC3)c1C 8.55%, CN(C(=O)c1ccc2c(c1)N(Cc1ccccc1F)C(=O)c1ccccc1S2)C1CCCCC1 -40.2%, CN(C)S(=O)(=O)c1ccc2c(c1)N(CC(=O)N1CCCCC1)CCS2 4.93%, Cc1ccc(-c2nnc(Nc3ccc(Cl)cc3)c3ccccc23)cc1S(=O)(=O)N1CCOCC1 -10.9%, Cn1cc(S(=O)(=O)c2ccccc2)c(=O)c2cc(F)c(N3CCN(c4ccc(F)cc4)CC3)cc21 -11%, O=C(Nc1c(C(=O)N2CCC(N3CCCCC3)CC2)oc2ccccc12)c1c(F)cccc1F -5.8%, Cc1ccc(NC(=O)Cn2c(=O)n(CCC(=O)NCCc3ccccc3)c(=O)c3ccccc32)cc1 14.8%, O=C(Cn1cnc(S(=O)(=O)N2CCCC2)c1)Nc1ccccc1 -25.2%, CC(=O)Nc1ccc(NC(=O)C(Cc2ccccc2)N2Cc3ccccc3C2=O)cc1 (configuration not stated) -13.5%, Cc1cccc(N2CCN(C(=O)c3c(C)oc4nc(C)nc(N5CCCC5)c34)CC2C)c1 (configuration not stated) -15.6%, COc1ccc(CNC(=O)CCc2nc3cccnc3n2Cc2ccccc2)cc1 -8.82%, Cc1ccc(Cl)cc1N1CCN(C(=O)c2cn(C)c3ccc(S(=O)(=O)N(C)C4CCCCC4)cc3c2=O)CC1 -12.9%, CCOc1ccc(CCNC(=O)C(C)n2nc(C)n3c(cc4occc43)c2=O)cc1OCC (configuration not stated) -13.7%, COc1cccc(-n2c(SCC(=O)N3CCCCC3)nc3c([nH]c4ccccc43)c2=O)c1 -3.54%, COc1ccc(CC(=O)NC2CC(=O)N(c3ccc4c(c3)OCCO4)C2)cc1 (configuration not stated) -5.49%, CC(C)NC(=O)c1ccc(Cn2c(=O)c3cccn3c3cccnc32)cc1 -11.8%, CCOC(=O)c1c(NC(=O)C(C)Sc2cn(CCNC(=O)c3ccc(OC)c(OC)c3)c3ccccc23)sc2c1CCC2 (configuration not stated) -11.3%, CCOCCCn1c(=N)c(S(=O)(=O)c2ccc(C)cc2)cc2c(=O)n3ccccc3nc21 -14.5%, COc1ccc2nc3sc(C(=O)Nc4cc(Cl)c(OC)cc4OC)cc3cc2c1 4.74%, Cc1c(NC(=O)c2cc(-c3cccc(Cl)c3)on2)c(=O)n(-c2ccccc2)n1C 14.7%, O=C(NCCC1=CCCCC1)c1ccc2c(c1)N(Cc1ccc(F)cc1)C(=O)c1ccccc1S2(=O)=O 2.7%, O=C(CSc1nncn2c1cc1sccc12)Nc1ccccc1C(F)(F)F -1.28%, COCCCNc1nc2c(-c3ccccc3)nnn2c2ccccc12 6.85%, CCOCCCn1c(=N)c(C(=O)NCc2ccco2)cc2c(=O)n3ccccc3nc21 -23.6%, CO[C@]1(NC(=O)CSC(F)F)C(=O)N2C(C(=O)O)=C(CSc3nnnn3CCO)CO[C@H]21 16.4%, CCOC(=O)c1c(C)oc2nc(C)nc(NCc3ccc(C)cc3)c12 -1.26%, CCN1CCN(Cc2c(O)ccc3c(=O)c(Oc4ccccc4Cl)c(C(F)(F)F)oc23)CC1 -6.39%, Cc1ccccc1C(=O)NCC(c1cccnc1)N1CCc2ccccc21 (configuration not stated) -18.7%, COC(=O)c1ccccc1NC(=O)c1cc2nc(-c3ccccc3)cc(-c3ccccc3)n2n1 -0.0595%, Cc1cccc(N2CCN(S(=O)(=O)c3ccc4oc(=O)c5ncn(C)c5c4c3)CC2C)c1 (configuration not stated) -1.87%, COc1ccc(N(C(=O)COc2c(C)cccc2C)S(=O)(=O)c2ccc(Cl)cc2)cc1 -8.81%, COc1ccc(NC(=O)C2(c3cccs3)CCOCC2)cc1Cl -2.21%, CCOC(=O)c1c(C)sc(-c2c(-c3ccc4c(c3)OCCO4)[nH]c3c2c(=O)[nH]c(=O)n3C)c1O -48.5%, Cc1ccc(-c2nnc(Nc3ccc(O)cc3)c3ccccc23)cc1S(=O)(=O)NCc1nc2ccccc2[nH]1 -1.73%

activation, active:
O=C(CCc1ccccc1)NCCc1csc(-c2cccc(F)c2)n1 85.5%, Nc1c(C(=O)Nc2cccc(Cl)c2)sc2nc3c(cc12)CN(Cc1ccccc1)CC3 60.9%

Reference: PubChem BioAssay AID1346428 (National Center for Advancing Translational Sciences (NCATS), 2018)
